The record followed here is paper PMC4336329 (PLoS ONE, 2015).

Among all 310,000 compounds or so, about 14,000 (4.5%) showed an effect of 50% or more. Effects have a minus sign here. The list shows a part of the results.
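Note: peak tail current of the secondary pulse compared with the same well before compound.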

Chain of human ether-à-go-go-related gene (hERG) potassium channel (Q12809 whole entry, looked up): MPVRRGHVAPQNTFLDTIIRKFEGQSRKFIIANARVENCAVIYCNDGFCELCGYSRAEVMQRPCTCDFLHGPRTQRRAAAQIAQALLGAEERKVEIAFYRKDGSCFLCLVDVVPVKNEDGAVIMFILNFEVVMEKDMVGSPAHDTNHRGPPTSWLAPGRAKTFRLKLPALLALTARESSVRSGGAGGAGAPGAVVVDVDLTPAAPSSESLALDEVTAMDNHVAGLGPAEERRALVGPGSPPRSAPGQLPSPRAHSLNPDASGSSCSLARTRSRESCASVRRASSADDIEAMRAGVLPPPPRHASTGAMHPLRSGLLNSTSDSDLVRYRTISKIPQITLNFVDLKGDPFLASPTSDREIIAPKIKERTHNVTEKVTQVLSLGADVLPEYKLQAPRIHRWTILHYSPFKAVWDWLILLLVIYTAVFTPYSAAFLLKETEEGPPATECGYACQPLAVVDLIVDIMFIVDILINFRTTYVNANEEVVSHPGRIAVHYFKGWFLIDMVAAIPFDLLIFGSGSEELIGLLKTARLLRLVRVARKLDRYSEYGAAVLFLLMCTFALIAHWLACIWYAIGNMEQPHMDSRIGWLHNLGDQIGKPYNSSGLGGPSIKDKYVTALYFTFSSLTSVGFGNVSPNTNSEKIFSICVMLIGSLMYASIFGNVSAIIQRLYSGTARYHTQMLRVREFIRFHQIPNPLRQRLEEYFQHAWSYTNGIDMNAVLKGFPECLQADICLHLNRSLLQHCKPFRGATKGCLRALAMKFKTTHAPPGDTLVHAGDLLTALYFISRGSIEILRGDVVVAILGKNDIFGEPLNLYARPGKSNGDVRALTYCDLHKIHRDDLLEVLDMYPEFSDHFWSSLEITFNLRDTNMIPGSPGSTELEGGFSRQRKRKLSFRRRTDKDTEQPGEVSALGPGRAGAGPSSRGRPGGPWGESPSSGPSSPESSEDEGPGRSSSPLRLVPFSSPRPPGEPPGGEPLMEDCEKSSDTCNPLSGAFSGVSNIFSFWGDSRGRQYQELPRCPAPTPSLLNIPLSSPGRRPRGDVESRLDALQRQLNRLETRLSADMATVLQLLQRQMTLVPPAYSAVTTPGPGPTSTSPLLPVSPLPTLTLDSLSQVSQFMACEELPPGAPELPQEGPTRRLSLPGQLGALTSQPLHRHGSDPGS

The test addresses human ether-à-go-go-related gene (hERG) potassium channel (human, UniProt Q12809). Briefly: primary screen, population patch clamp on CHO cells stably expressing hERG.
As to `O=C(CCS(=O)(=O)c1ccccc1)Nc1ccc(-c2nc3ccccc3s2)cc1`, the “hERG current change (%, negative = inhibition) at 10uM” value was 10.7%. Take `CC1=N/C(=C\c2ccc([N+](=O)[O-])cc2)C(=O)N1c1ccc(Cl)cc1`: the “hERG current change (%, negative = inhibition) at 10uM” value is reported as 1.51%. For `COC(=O)[C@@H]1C[C@H]2CC[C@H](O)C[C@H]2N1Cc1ccc(C(C)(C)C)cc1`, the “hERG current change (%, negative = inhibition) at 10uM” value was found to be 8.61%. Consider `CS(=O)(=O)NCc1ccccc1Br`, for which the “hERG current change (%, negative = inhibition) at 10uM” value turned out to be 13.5%. Take `N#C/C(=C\c1cn(CCOc2ccccc2F)c2ccccc12)C(=O)NCc1cccs1`: the “hERG current change (%, negative = inhibition) at 10uM” value is reported as 3.65%.

Turning to `CCn1c(SCC(=O)N2CCC(C(N)=O)(N3CCCCC3)CC2)nnc1-c1ccccc1`, the “hERG current change (%, negative = inhibition) at 10uM” value was 14.8%. As to `O=C(c1ccccc1)c1nccc2ccccc12`, the “hERG current change (%, negative = inhibition) at 10uM” value is recorded as -9.17%.

With `CCCNC(=S)N1CCN(c2nc(-c3cccc(OC)c3)cs2)CC1`, the “hERG current change (%, negative = inhibition) at 10uM” value was determined as 4.31%.

For `CN1CCN(CC(O)COc2ccc(C(=O)O)cc2)CC1` (stereo not shown), the “hERG current change (%, negative = inhibition) at 10uM” value amounted to 16.3%. On to `Cc1cc(-c2ccccc2)[nH]c(=O)c1S(=O)(=O)c1ccccc1`, for which the “hERG current change (%, negative = inhibition) at 10uM” value amounted to 8.32%. `O=C(Cc1ccccc1)Nc1cccc(N2C(=O)C=CC2=O)c1`: the “hERG current change (%, negative = inhibition) at 10uM” value was -4.45%. As for `CCCCCCN1C=CC(=C/C=C(\C#N)C(=O)OCC)C=C1`, the “hERG current change (%, negative = inhibition) at 10uM” value is given as -4.32%. Regarding `COc1ccc(-c2nnc3ccc(SCC(=O)NCc4ccco4)nn23)cc1OC`, the “hERG current change (%, negative = inhibition) at 10uM” value is -28.3%. Turning to `CCc1cccc(C)c1NC(=O)CO/N=C(\C)c1cc2ccccc2o1`, the “hERG current change (%, negative = inhibition) at 10uM” value is given as -0.19%. Turning to `Cn1cc(C(=O)N/N=C/c2ccc(Br)c([N+](=O)[O-])c2)c2ccccc21`, the “hERG current change (%, negative = inhibition) at 10uM” value was found to be 9.26%. In the case of `O=C(O)CCCCCNC(=O)CSc1nnc(-c2ccco2)n1-c1ccccc1`, the “hERG current change (%, negative = inhibition) at 10uM” value is given as 11.9%. The value for `CNC(=O)[C@H]1O[C@@H](n2cnc3c(NCc4cccc(I)c4)ncnc32)[C@H](O)[C@@H]1O` was -14.1%.

Regarding `CC(C)NC(=O)Nc1n[nH]c(Nc2ccc(Cl)cc2)n1`, the “hERG current change (%, negative = inhibition) at 10uM” value turned out to be 11.1%. `O=C(c1cc(-c2cccs2)on1)N1CCN(c2ccc(F)cc2)CC1`: the “hERG current change (%, negative = inhibition) at 10uM” value is listed as -8.74%. On to `O=C(O)CCc1nn2cc(-c3ccccc3)nc2[nH]c1=O`, for which the “hERG current change (%, negative = inhibition) at 10uM” value stood at 12.9%. On to `Cn1c(SCC(=O)O)nnc1-c1cccc(NC(=O)c2cccc3ccccc23)c1`, for which the “hERG current change (%, negative = inhibition) at 10uM” value is 7.15%.

With `COc1cc(OC)cc(OCC(O)Cn2ccnc2)c1` (stereo not shown), the “hERG current change (%, negative = inhibition) at 10uM” value is on record as -1.17%.

As to `COc1ccc(CNC(=O)CCc2c(C)nc3ncnn3c2C)cc1`, the “hERG current change (%, negative = inhibition) at 10uM” value is listed as -5.39%. Consider `O=c1cc(N2CCc3ccccc32)[nH]c(=O)n1-c1ccc(Br)cc1`, for which the “hERG current change (%, negative = inhibition) at 10uM” value is 7.88%.

For the compound `Cc1ccc(Cl)cc1N(CC(=O)Nc1cccc(N(C)S(C)(=O)=O)c1)S(C)(=O)=O`, the “hERG current change (%, negative = inhibition) at 10uM” value is -10.7%.

As for `COc1ccc(CC(=O)N2N=C(C)CC2(O)c2cccnc2)cc1` (stereo not shown), the “hERG current change (%, negative = inhibition) at 10uM” value is 7.26%. For `COc1ccc(NC(=O)C(C)Sc2nnc3c4c(nc(-c5ccc(OC)cc5)n23)CC(C)(C)OC4)cc1` (stereo not shown), the “hERG current change (%, negative = inhibition) at 10uM” value amounted to 3.89%. In the case of `COc1ccc(N2CC(C(=O)Nc3ccc(S(=O)(=O)Nc4nccs4)cc3)CC2=O)c(OC)c1` (stereo not shown), the “hERG current change (%, negative = inhibition) at 10uM” value was -7.75%. For `CCCC[C@@H]1CN=C(N)N1CCCC`, the “hERG current change (%, negative = inhibition) at 10uM” value came out at 22.9%.

Regarding `COc1ccc(OC)c(C(C(=O)NCc2ccco2)N(C(=O)Cn2nnc3ccccc32)C2CC2)c1` (stereo not shown), the “hERG current change (%, negative = inhibition) at 10uM” value is reported as -3.32%. For the compound `CCOC(=O)c1[nH]c(C)c(C(=O)NC2CCCCC2)c1C`, the “hERG current change (%, negative = inhibition) at 10uM” value is on record as 9.1%. Regarding `Cn1c(-c2cccc(Br)c2)cnc1NCc1cccnc1`, the “hERG current change (%, negative = inhibition) at 10uM” value is -59.6%.

`CCOC(=O)c1csc(N)c1-c1ccc([N+](=O)[O-])cc1`: the “hERG current change (%, negative = inhibition) at 10uM” value turned out to be 6.52%. As for `O=C(COC(=O)c1ccc2[nH]c3c(c2c1)CCCC3)Nc1ccccc1Cl`, the “hERG current change (%, negative = inhibition) at 10uM” value is recorded as 26.1%.

In the case of `Cc1ccc(N(CCC#N)C(=O)COC(=O)c2cc(C)oc2C)cc1`, the “hERG current change (%, negative = inhibition) at 10uM” value is -15.3%. The value for `CCCCOC(=O)c1ccc(NC(c2ccc(C)cc2)P(=O)(OC)OC)cc1` (stereo not shown) was -11.5%; that for `CC(C(=O)NCCS(=O)(=O)c1ccc(Br)cc1)S(=O)(=O)c1ccc(Cl)cc1` (stereo not shown) was -34.3%; that for `Cn1ncc2c(Nc3cc(Cl)cc(Cl)c3)ncnc21` was 11.9%. The value for `COC(=O)Cn1c(=O)c2c(nc3n2CCCN3CCc2ccccc2)n(C)c1=O` was -39.6%; that for `CCCCn1c(N)c(N(CCOC)C(=O)c2cc(S(=O)(=O)N3CCCCC3)ccc2Cl)c(=O)[nH]c1=O` was 8.12%. The value for `COC(=O)c1ccccc1NC(=O)Nc1cccs1` was 18%. As for `CC(C(=O)Nc1nc(-c2ccc(F)c(F)c2)cs1)N1C(=O)C2CC=CCC2C1=O` (stereo not shown), the “hERG current change (%, negative = inhibition) at 10uM” value is listed as -5.3%. For `Cn1cnnc1SCC(=O)Nc1cccc(C(=O)O)c1`, the “hERG current change (%, negative = inhibition) at 10uM” value was 7.72%.
